The whole screen tested about 310,000 compounds, of which about 2,200 (0.71%) showed an effect of 50% or more. Effects have a minus sign here. Some of the results follow.
target: human ether-à-go-go-related gene (hERG) potassium channel (human, UniProt Q12809); assay: primary screen, population patch clamp on CHO cells stably expressing hERG
Sequence (Q12809 whole entry, looked up): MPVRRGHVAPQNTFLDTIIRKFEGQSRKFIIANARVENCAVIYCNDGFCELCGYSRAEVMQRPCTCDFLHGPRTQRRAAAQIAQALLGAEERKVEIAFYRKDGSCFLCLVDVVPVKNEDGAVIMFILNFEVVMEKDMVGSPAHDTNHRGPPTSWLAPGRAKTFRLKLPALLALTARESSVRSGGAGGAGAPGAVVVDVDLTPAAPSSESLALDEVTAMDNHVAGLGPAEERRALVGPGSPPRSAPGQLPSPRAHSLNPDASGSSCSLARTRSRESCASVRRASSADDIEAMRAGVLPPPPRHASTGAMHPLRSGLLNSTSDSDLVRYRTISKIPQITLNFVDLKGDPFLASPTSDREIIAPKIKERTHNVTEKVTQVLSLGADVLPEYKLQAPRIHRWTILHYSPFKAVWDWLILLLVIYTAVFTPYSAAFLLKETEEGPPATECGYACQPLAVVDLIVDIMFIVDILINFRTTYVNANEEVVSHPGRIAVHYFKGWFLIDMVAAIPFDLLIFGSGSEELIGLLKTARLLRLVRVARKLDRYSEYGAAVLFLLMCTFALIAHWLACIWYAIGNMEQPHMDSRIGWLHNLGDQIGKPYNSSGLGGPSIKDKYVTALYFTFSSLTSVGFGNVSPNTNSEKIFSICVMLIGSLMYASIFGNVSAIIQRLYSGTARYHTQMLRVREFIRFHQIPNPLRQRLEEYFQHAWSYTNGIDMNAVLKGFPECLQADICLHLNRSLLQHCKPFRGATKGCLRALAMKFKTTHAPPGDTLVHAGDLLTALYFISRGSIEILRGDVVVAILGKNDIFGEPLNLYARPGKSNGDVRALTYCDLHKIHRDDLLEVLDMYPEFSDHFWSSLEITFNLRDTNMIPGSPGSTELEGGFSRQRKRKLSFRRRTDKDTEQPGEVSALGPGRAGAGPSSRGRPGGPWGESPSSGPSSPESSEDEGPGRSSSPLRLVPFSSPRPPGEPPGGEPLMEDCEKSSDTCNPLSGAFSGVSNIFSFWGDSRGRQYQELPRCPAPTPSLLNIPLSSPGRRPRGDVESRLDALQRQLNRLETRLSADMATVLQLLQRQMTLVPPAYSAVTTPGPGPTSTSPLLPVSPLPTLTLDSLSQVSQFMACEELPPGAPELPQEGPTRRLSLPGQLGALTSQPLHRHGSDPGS

SMILES | hERG current change (%, negative = inhibition) at 1uM [%]
COc1cccc(/C=N/Nc2ccccc2C(=O)O)c1O | 14
COc1ccc(S(=O)(=O)N2CCC(C(=O)NCCN3CCOCC3)CC2)cc1C | 14.8
COc1ccc(OC)c(NC(=O)CSc2ncccc2C(=O)O)c1 | 13.7
O=C(CN1C(=O)c2cccc3cccc(c23)C1=O)N1CCN(Cc2ccc3c(c2)OCO3)CC1 | -12.2
Cc1cccc(NC(=O)c2ccc(N3CCCCC3)c([N+](=O)[O-])c2)n1 | 21.3
CCC(C)(C)c1ccc(O)cc1 | 7.05
CC(C)(C)c1ccc(C(=O)Nc2cnccn2)cc1 | -12.8
CC(C)(C)NC(=O)Cn1c(SCC(=O)NCc2cccs2)nc2ccccc21 | 6.57
CN1CCN(C(=O)c2ccc3c(=O)n4c(nc3c2)CCCCC4)CC1 | 3.06
CC(C)(C)NC(=O)C(c1ccco1)N(C(=O)Cn1nnc(-c2ccc(F)cc2)n1)c1ccccc1 (centres unmarked) | -6.47
CCOc1cc(C)ccc1OCc1nnc(SCC(=O)Nc2cccc(C(=O)O)c2)n1-c1ccccc1 | 16.4
COc1cccc(NC(=O)CN(C)C(=O)CN2C(=O)NC(C)(c3ccc(C)cc3)C2=O)c1 (centres unmarked) | 14.3
CCOC(=O)c1c(-c2ccccc2)oc2ccc(OC)cc12 | 9.4
CC(C)CCc1noc(CN(CC2CCC2)CC2CCCO2)n1 (centres unmarked) | 10.7
COc1ccc(OC)c(N=c2oc3cc(O)ccc3cc2C(N)=O)c1 | 3.95
CCOC(=O)Cc1csc(NC(=O)c2ccc3c(c2)OCO3)n1 | 9.9
CN1c2ccccc2N(C)C1c1c(O)ccc2ccccc12 | -3.93
Cc1ccc2cc(C#N)c(SCC(=O)NCc3ccco3)nc2c1 | 5.21
CCOC(=O)CC(=O)CSc1nc2ccccc2c(=O)n1-c1ccc(C(=O)N2CCOCC2)cc1 | 10.7
COc1cc(C(=S)N2CCCC2)cc(OC)c1O | 12.3
c1ccc(CNCC2COc3ccccc3O2)cc1 (centres unmarked) | 16.4
O=C(CNC(=O)c1ccco1)NCC(=O)OCc1ccc(F)cc1 | 15.3
C=CCCCCCCCCC(=O)NNC1=CC(=O)CC(C)(C)C1 | 1.29

SMILES | hERG current change (%, negative = inhibition) at 1uM [%]
CCn1c(=O)cc(SCC(=O)NCCCN2CCC(C)CC2)c2ccccc21 | 6.91
O=C(CN1C(=O)/C(=C\c2ccccc2Br)Oc2ccccc21)NCCCN1CCOCC1 | 8.38
CCOC(=O)c1cc(S(=O)(=O)N2CCOCC2)cn1C | 18.8
Cl.c1ccc2c(c1)oc1c(NCC3CCCO3)ncnc12 (centres unmarked) | 8.38
N/C(=N\OC(=O)c1ccc([N+](=O)[O-])cc1)c1cccnc1 | 17.5
Cc1ccc(Oc2ccccc2/C=C/C(=O)O)cc1 | 15
CCN1CCN(C(=O)C2CCN(c3nnc(-n4c(C)ccc4C)s3)CC2)CC1 | 1.5
CCC(C)NC(=O)CSC1=Nc2ccccc2C2=NC(CC(=O)NCc3ccccc3)C(=O)N12 (centres unmarked) | 6.89
COc1cc(/C=C(\C#N)c2nc3ccccc3[nH]2)ccc1OC(=O)c1ccco1 | -0.888
COc1cccc(CNC(=O)CN2C(=O)COc3ccc(S(=O)(=O)N4CCOCC4)cc32)c1 | 7.36
C/C(=C\c1ccccc1)C1NC(=O)c2c(sc3c2CCCC3)N1 (centres unmarked) | -13.5
CC1=NN(c2nc(-c3ccc(Cl)cc3)cs2)C(=O)C1 | 11.7
O=C(Nc1nnc(SCc2ccccc2)s1)c1ccco1 | 5.19
Cc1ccc(S(=O)(=O)/N=C(/Nc2ccc3[nH]c(=O)[nH]c3c2)c2ccccc2)cc1 | 9.61
O=C(CSc1nnc(-c2ccncc2)n1CC1CCCO1)Nc1cccc(O)c1 (centres unmarked) | 6.15
c1ccc(N(c2ccccc2)c2nc(N3CCCC3)nc(-n3ccnc3)n2)cc1 | 2.46
O=C(NC1CCCC1)C1=COCCO1 | 6.01
CCC(COC)NC(=O)CCc1nnc(Cc2c[nH]c3ccccc23)o1 (centres unmarked) | 19.2
Cc1cc([N+](=O)[O-])cc(C)c1OCC(=O)N/N=C/c1ccc(OC(=O)c2ccccc2)cc1 | 7.73
COc1ccc(-c2cn3ccccc3n2)cc1 | 13.8
O=C(O)CCCc1nc(-c2ccccc2)no1 | 0.874
CC(=O)N1CCCc2cc(S(=O)(=O)N3CCCC(C(=O)Nc4cccc(C)c4)C3)ccc21 (centres unmarked) | 11
CN(C)c1ccc(NC(=O)CSc2nc3ccccc3c(=O)n2C2CCCCC2)cc1 | -14.6

SMILES | hERG current change (%, negative = inhibition) at 1uM [%]
COc1ccccc1N(CC(=O)NCc1ccccc1)C(=O)CCC(=O)Nc1nccs1 | 15.6
CC(/C=N/NC(=O)c1nnn(-c2nonc2N)c1CN(C)C)=C\c1ccco1 | 2.8
c1ccc(CN2CCN(c3ncnc4c3[nH]c3ccccc34)CC2)cc1 | -4.31
NC(=O)CSc1nc(-c2ccccc2Cl)ns1 | 9.72
COc1cc2c(cc1OC)C(C)N(C(=O)Cc1ccc(C(F)(F)F)cc1)CC2 (centres unmarked) | 1.85
COc1ccc(C2NN=C(c3ccc(C)cc3)S2)cc1OC (centres unmarked) | 16.1
c1cc(-c2noc(CC3CCCCC3)n2)ccn1 | 13.9
COc1ccc(C(=O)CN(C(=O)c2ccc(Cl)cc2)N2C(=O)C3CCCCC3C2=O)cc1 (centres unmarked) | 10.8
CSc1sc(C(=O)NC(=O)NCc2cccnc2)c(C)c1-c1ccon1 | -0.601
Cc1ccccc1C(=O)NC(=S)Nc1cccc(NC(=O)C(C)C)c1 | -3.79
O=C(O)c1cc(N=Nc2ccc(S(=O)(=O)Nc3ccccn3)cc2)ccc1O | 7.96
Cc1ccsc1/C=N/NC(=O)c1ccco1 | 12.5
CCCNS(=O)(=O)c1ccc(CCC(=O)NCCc2ccc(OC)c(OC)c2)cc1 | 17.7
O=C(c1cc(-c2ccc(Cl)c(Cl)c2)on1)N1CCOCC1 | 6.02
COc1ccc(C(=O)c2ccc([N+](=O)[O-])cc2Cl)cc1 | 20.8
CN(CC(=O)Nc1ccc(N2CCOCC2)cc1)C(=O)c1cc(S(=O)(=O)N(C)C)ccc1Cl | 9.46
O=C(C1CC(=O)N(c2ccc3c(c2)OCCO3)C1)N1CCN(Cc2ccccc2F)CC1 (centres unmarked) | 9.26
S=c1[nH]ncn1/N=C/c1ccccc1 | 14.4
O=C(N/N=C/c1c(-c2ccccc2)[nH]c2ccccc12)c1cccnc1 | -1.55
Cc1c(-c2cccs2)[n+](=O)c2c(n1[O-])CCCC2 | 9.21
O=C(CNc1ccc2c(c1)OCO2)N/N=C\c1cn(Cc2ccccc2)c2ccccc12 | 7.16
O=C(NCc1cccnc1)c1ccc(S(=O)(=O)N2CCOCC2)cc1 | 1.04
Cc1ccc(N2C(=O)/C(=C/N3CCN(C(=O)c4ccco4)CC3)C(=O)NC2=S)cc1C | 1.67

SMILES | hERG current change (%, negative = inhibition) at 1uM [%]
O=C(OCn1nnc2ccccc2c1=O)c1ccc(O)cc1 | -2.41
Cc1cccc(OCCn2c(=O)sc3ccccc32)c1 | 7.72
CCC(C)(CC(=O)N(C)CCC#N)c1ccccc1 (centres unmarked) | 4.19
N=C1/C(=C/c2coc3ccccc3c2=O)C(=O)N=C2SC(c3ccco3)=NN12 | 16
COC(=O)c1cc2c(ccn2-c2ccc(F)cc2)n1Cc1cccc(OC)c1 | 1.82
CN(C)CCCN(C(=O)c1ccc2c(c1)CCCC2)c1nc2cc3c(cc2s1)OCO3.Cl | -17.4
CN(Cc1cccs1)C(=O)/C=C/c1ccccc1[N+](=O)[O-] | 7.21
CN1CCc2c(sc3c2C(=O)NC(c2cccc(OC(=O)c4cccs4)c2)N3)C1 (centres unmarked) | 9.1
COc1ccccc1C(CNC(=O)c1cccc(S(=O)(=O)NCc2ccccc2)c1)N(C)C (centres unmarked) | -8.9
COc1cccc(-n2c(=S)sc3c(=O)n(-c4ccccc4C)c(SCC(=O)O)nc32)c1 | 17.3
Cc1cc(C)c(S(=O)(=O)N2CCOCC2)c(C)c1N(C)S(=O)(=O)c1ccccc1 | 5.19
O=C(Cc1ccccc1)NN1C(=O)/C(=C/c2ccc(C(=O)O)cc2)SC1=S | 16.7
CNc1nnc(SCC(=O)c2cc(C)n(C3CC3)c2C)s1 | 13.8
CCOC(=O)c1c(C)[nH]c(C)c1C(=O)CSc1nnc(N)s1 | 11.6
COC(=O)c1c(-c2ccc(C(C)(C)C)cc2)csc1NC(=O)C1C2CCC(O2)C1C(=O)O (centres unmarked) | 3.72
Cc1sc2ncnc(SCC(=O)NC3CC3)c2c1C | -0.41
c1ccc(-c2cncnc2)cc1 | 7.98
CCC(C)c1nc2ccsc2c(N2CCOC2=O)c1-c1ccccc1 (centres unmarked) | -5.54
CCCCC(=O)N1CC(=O)Nc2ccc(F)cc2C1c1ccccc1 (centres unmarked) | 8.61
Cc1cccc(-n2c(C)cc(/C=N/NC(=O)c3cccc([N+](=O)[O-])c3C)c2C)c1 | 18.7
